Results on five molecules are retold here after publication PMC8986528.

Amino acid sequences for entries named in this document (tags omitted).
UniProt Q8IZL8: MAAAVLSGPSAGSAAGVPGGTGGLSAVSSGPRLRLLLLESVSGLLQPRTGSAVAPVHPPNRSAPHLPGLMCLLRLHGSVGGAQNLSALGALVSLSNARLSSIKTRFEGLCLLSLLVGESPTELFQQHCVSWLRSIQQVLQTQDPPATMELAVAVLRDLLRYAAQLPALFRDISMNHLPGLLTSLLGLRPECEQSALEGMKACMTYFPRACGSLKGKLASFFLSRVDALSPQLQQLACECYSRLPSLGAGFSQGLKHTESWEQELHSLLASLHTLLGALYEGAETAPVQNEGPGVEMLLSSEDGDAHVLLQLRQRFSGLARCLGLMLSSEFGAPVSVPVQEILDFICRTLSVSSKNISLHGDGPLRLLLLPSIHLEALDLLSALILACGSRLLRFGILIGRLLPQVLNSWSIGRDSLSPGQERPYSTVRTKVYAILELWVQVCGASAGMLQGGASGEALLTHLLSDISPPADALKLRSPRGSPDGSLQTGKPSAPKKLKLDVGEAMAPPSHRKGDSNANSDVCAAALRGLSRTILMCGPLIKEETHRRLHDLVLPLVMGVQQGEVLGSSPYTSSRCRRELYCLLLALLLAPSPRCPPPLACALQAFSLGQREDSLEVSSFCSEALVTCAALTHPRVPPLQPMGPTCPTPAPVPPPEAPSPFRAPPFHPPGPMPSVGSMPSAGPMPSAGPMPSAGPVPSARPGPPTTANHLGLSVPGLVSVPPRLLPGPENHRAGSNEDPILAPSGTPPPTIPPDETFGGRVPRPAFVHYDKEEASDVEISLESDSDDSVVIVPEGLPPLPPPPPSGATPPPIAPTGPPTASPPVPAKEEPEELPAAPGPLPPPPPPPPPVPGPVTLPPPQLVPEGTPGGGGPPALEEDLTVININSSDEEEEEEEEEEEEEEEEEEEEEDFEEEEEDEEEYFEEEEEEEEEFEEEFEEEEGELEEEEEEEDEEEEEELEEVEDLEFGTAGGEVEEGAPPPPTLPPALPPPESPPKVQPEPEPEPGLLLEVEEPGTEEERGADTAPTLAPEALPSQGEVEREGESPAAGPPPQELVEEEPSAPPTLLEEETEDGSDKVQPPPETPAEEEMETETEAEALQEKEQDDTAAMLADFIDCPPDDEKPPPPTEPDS
UniProt Q9H4L4: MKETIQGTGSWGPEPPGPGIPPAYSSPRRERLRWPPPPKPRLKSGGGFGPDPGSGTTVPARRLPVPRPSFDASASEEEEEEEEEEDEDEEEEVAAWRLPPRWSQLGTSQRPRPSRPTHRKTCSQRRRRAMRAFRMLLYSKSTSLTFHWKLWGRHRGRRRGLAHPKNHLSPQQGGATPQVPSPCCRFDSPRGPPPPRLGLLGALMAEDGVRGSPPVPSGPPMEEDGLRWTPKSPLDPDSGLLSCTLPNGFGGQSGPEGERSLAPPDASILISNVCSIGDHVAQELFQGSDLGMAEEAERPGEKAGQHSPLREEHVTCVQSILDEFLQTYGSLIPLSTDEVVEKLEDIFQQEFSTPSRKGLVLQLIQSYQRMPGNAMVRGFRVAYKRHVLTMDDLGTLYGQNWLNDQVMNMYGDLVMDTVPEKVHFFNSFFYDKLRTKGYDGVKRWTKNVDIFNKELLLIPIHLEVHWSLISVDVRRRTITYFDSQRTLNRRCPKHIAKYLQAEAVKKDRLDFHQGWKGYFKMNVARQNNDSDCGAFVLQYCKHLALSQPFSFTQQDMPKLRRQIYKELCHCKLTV
UniProt Q99496: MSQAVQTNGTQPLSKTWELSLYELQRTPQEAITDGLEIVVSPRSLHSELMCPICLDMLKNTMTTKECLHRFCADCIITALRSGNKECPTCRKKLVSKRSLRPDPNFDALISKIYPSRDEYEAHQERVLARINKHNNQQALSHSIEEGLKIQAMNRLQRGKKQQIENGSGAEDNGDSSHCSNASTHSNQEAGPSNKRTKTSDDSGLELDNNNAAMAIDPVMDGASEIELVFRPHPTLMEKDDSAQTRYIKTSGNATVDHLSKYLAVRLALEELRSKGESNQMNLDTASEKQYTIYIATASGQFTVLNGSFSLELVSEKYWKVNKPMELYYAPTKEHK
UniProt P83916: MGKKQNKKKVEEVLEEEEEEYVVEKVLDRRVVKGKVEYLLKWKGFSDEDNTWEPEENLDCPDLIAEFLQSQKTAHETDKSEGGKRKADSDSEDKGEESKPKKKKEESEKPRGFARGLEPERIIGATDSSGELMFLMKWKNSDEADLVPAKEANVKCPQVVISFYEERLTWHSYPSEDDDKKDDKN
UniProt Q13185: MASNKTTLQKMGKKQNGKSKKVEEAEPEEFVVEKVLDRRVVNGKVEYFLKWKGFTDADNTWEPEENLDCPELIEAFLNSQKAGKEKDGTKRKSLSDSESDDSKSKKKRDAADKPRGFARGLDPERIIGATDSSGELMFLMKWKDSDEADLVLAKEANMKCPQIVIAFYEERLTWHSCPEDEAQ
UniProt P45973: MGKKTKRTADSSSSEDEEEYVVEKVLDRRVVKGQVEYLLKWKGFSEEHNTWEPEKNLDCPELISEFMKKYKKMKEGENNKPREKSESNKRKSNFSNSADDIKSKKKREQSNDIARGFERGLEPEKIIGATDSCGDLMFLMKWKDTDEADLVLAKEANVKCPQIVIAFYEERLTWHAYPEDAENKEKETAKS

No constants are given. Whether binding was seen depends on the method and setting. For part of these data: Binding seen in cells or lysates may run through a third protein. Some results given as binding are weak or reduced against the parent protein; the word gives no strength. For part of these data: Tags and fused reporters may be left off the sequences shown.

The target in assay [1] is T1, NOL9 (yeast two-hybrid fusion) (human) (UniProt Q5SY16).
T1 sequence: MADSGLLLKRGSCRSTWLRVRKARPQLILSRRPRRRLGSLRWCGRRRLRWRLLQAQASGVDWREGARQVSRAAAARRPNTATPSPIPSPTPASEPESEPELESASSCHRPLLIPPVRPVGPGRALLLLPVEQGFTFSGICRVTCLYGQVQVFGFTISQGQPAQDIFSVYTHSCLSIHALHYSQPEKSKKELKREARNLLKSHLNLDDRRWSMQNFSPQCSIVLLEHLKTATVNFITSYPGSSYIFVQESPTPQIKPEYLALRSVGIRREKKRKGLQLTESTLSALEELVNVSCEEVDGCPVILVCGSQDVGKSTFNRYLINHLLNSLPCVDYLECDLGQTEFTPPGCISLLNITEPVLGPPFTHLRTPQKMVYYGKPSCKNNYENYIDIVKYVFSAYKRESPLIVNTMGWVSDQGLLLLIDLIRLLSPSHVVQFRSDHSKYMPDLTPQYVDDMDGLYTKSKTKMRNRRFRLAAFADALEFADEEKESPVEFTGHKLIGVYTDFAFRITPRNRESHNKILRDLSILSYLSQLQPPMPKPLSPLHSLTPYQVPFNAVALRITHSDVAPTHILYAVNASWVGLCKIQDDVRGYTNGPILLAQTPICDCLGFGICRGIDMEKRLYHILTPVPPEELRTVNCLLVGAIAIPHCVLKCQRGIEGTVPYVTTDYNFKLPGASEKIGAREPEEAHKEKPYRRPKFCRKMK
The assay is described as follows: two-hybrid; yeast two-hybrid, bait pGBKT7 and prey pGADT7, growth on quadruple dropout medium (SC -Trp, -Leu, -His, -Ade), 30 °C.

Assay [2] deals with PELP1 (yeast two-hybrid fusion) (human) (UniProt Q8IZL8). The assay is described as above.
Assay [3] concerns the target T2, TEX10 (yeast two-hybrid fusion) (human) (UniProt Q9NXF1).
T2 sequence: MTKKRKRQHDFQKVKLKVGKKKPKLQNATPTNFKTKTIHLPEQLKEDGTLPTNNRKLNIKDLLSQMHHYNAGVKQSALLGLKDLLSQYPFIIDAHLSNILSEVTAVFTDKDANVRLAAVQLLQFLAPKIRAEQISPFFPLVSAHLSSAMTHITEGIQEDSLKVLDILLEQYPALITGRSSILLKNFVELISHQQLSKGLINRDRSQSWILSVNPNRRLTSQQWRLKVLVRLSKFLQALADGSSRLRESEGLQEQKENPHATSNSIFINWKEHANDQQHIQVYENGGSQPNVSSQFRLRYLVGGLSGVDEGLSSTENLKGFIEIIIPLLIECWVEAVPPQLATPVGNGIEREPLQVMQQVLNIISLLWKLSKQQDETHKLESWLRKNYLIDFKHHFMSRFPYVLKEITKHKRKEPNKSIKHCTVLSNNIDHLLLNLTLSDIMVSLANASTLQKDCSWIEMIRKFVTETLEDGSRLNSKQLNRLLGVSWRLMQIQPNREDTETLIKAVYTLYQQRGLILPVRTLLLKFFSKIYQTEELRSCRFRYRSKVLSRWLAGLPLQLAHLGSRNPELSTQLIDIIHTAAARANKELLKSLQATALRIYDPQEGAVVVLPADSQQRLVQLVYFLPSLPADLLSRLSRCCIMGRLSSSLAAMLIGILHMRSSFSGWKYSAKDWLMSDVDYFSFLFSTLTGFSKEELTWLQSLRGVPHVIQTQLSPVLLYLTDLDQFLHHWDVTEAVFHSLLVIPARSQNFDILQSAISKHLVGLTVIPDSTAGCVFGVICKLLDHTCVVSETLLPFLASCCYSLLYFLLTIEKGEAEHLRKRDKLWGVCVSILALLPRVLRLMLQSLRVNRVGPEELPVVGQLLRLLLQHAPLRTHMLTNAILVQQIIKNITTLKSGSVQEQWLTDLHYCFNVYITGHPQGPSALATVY
The description is as above.

In assay [4] the target is T3, WDR18 (yeast two-hybrid fusion) (human) (UniProt Q9BV38).
T3 sequence: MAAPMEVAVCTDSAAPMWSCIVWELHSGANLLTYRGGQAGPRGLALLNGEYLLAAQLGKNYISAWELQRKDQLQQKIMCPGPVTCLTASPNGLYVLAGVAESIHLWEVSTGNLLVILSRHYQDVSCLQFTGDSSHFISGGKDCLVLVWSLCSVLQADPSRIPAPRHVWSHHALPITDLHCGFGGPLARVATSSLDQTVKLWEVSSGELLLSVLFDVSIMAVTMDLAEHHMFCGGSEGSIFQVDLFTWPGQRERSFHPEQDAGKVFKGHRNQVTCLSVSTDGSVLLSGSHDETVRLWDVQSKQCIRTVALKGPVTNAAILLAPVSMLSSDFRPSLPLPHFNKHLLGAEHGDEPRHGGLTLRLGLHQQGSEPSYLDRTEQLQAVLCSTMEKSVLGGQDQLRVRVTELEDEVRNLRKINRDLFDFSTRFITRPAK
The assay is described as above.

Assay [5] has as its target T4, 3×Flag–WDR18 (human (endogenous in HEK 293FT)) (UniProt Q9BV38).
T4 sequence: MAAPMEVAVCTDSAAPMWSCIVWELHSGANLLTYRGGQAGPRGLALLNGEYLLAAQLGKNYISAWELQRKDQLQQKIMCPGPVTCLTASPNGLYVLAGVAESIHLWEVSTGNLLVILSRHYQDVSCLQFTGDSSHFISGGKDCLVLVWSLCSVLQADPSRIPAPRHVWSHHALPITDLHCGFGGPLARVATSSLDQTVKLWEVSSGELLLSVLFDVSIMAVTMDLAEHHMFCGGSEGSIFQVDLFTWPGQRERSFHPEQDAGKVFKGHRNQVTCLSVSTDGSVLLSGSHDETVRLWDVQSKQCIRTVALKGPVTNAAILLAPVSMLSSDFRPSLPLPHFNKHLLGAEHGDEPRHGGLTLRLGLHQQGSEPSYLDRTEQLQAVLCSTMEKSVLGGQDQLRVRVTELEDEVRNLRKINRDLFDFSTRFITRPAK
The assay is described as follows: co-IP; immunoprecipitation from the DNase I-digested chromatin fraction of HEK 293FT cells (IP buffer 250 mM NaCl, 1% Triton X-100), Dynabeads Protein A/G, immunoblot; Fig. 1f, g with or without 500 U/ml benzonase.

Assay [6] deals with PELP1 (human (endogenous in HEK 293FT)) (UniProt Q8IZL8). Described as above.
The target of assay [7] is SENP3 (human (endogenous in HEK 293FT)) (UniProt Q9H4L4). Described as above.
Assay [8] has as its target T5, TEX10 (human (endogenous in HEK 293FT)) (UniProt Q9NXF1).
T5 sequence: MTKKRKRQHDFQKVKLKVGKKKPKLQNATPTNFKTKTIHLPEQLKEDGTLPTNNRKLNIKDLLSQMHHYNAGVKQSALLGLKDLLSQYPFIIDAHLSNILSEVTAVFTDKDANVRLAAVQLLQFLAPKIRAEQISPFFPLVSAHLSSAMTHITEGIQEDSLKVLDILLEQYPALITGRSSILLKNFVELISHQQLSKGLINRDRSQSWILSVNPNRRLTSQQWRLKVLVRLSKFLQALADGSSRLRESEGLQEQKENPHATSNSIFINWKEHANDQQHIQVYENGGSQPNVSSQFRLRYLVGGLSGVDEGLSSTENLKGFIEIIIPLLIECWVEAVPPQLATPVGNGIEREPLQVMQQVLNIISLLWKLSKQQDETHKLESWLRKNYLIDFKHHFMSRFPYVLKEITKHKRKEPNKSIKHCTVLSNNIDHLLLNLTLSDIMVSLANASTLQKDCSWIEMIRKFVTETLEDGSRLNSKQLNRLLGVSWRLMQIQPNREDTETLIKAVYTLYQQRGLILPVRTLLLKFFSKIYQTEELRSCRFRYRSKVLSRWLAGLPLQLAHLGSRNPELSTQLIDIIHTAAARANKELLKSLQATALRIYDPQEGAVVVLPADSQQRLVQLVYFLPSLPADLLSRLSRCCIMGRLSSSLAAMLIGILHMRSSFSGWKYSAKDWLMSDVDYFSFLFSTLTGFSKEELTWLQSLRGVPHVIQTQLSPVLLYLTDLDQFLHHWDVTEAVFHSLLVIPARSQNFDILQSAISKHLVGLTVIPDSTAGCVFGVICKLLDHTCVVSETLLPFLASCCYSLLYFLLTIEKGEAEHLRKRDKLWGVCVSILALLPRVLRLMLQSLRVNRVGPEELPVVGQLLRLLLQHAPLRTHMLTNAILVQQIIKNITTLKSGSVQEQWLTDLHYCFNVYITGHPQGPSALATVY
Described as above.

Assay [9] deals with RING1B (human (endogenous in HEK 293FT)) (UniProt Q99496). The description is as above.
Assay [10] shares this target. In words: co-sedimentation; Flag–NOL9-associated and PHC2–Flag-associated proteins purified from the soluble chromatin fraction of cells with wild-type RING1B, eluted with 3×Flag peptide, 10–30% sucrose gradient, 16 h at 4 °C, fractions immunoblotted.

As for “HP1β (CBX1), yeast two-hybrid fusion (from UniProt P83916 1-185)”, the binding entry in assay [1], in [2], in assay [3] and in [4] was “no binding” in each case.

With “HP1γ (CBX3), yeast two-hybrid fusion (from UniProt Q13185 1-183)”, the binding result in [1], in assay [2], in [3] and in assay [4] was “no binding” throughout.

As to “HP1α (CBX5), yeast two-hybrid fusion (from UniProt P45973 1-191)”, the binding result in [1], in assay [2], in assay [3] and in assay [4] was “no binding” each time.

B1: SUV39H1 (protein, UniProt O43463 1-412)
chain: MAENLKGCSVCCKSSWNQLQDLCRLAKLSCPALGISKRNLYDFEVEYLCDYKKIREQEYYLVKWRGYPDSESTWEPRQNLKCVRILKQFHKDLERELLRRHHRSKTPRHLDPSLANYLVQKAKQRRALRRWEQELNAKRSHLGRITVENEVDLDGPPRAFVYINEYRVGEGITLNQVAVGCECQDCLWAPTGGCCPGASLHKFAYNDQGQVRLRAGLPIYECNSRCRCGYDCPNRVVQKGIRYDLCIFRTDDGRGWGVRTLEKIRKNSFVMEYVGEIITSEEAERRGQIYDRQGATYLFDLDYVEDVYTVDAAYYGNISHFVNHSCDPNLQVYNVFIDNLDERLPRIAFFATRTIRAGEELTFDYNMQVDPVDMESTRMDSNFGLAGLPGSPKKRVRIECKCGTESCRKYLF
For the molecule B1, the binding entry in assay [5], in [6], in assay [7] and in [8] was “no binding” in each case.

B2: TEX10 (protein, UniProt Q9NXF1 1-929)
chain: MTKKRKRQHDFQKVKLKVGKKKPKLQNATPTNFKTKTIHLPEQLKEDGTLPTNNRKLNIKDLLSQMHHYNAGVKQSALLGLKDLLSQYPFIIDAHLSNILSEVTAVFTDKDANVRLAAVQLLQFLAPKIRAEQISPFFPLVSAHLSSAMTHITEGIQEDSLKVLDILLEQYPALITGRSSILLKNFVELISHQQLSKGLINRDRSQSWILSVNPNRRLTSQQWRLKVLVRLSKFLQALADGSSRLRESEGLQEQKENPHATSNSIFINWKEHANDQQHIQVYENGGSQPNVSSQFRLRYLVGGLSGVDEGLSSTENLKGFIEIIIPLLIECWVEAVPPQLATPVGNGIEREPLQVMQQVLNIISLLWKLSKQQDETHKLESWLRKNYLIDFKHHFMSRFPYVLKEITKHKRKEPNKSIKHCTVLSNNIDHLLLNLTLSDIMVSLANASTLQKDCSWIEMIRKFVTETLEDGSRLNSKQLNRLLGVSWRLMQIQPNREDTETLIKAVYTLYQQRGLILPVRTLLLKFFSKIYQTEELRSCRFRYRSKVLSRWLAGLPLQLAHLGSRNPELSTQLIDIIHTAAARANKELLKSLQATALRIYDPQEGAVVVLPADSQQRLVQLVYFLPSLPADLLSRLSRCCIMGRLSSSLAAMLIGILHMRSSFSGWKYSAKDWLMSDVDYFSFLFSTLTGFSKEELTWLQSLRGVPHVIQTQLSPVLLYLTDLDQFLHHWDVTEAVFHSLLVIPARSQNFDILQSAISKHLVGLTVIPDSTAGCVFGVICKLLDHTCVVSETLLPFLASCCYSLLYFLLTIEKGEAEHLRKRDKLWGVCVSILALLPRVLRLMLQSLRVNRVGPEELPVVGQLLRLLLQHAPLRTHMLTNAILVQQIIKNITTLKSGSVQEQWLTDLHYCFNVYITGHPQGPSALATVY
For B2, the binding entry in [9] and in [10] was “binds” each time.
